A lower IC50 marks a more sensitive line; fits outside the tested doses are given as limits. AUC sums up the same curve from the lowest dose to the 256-fold higher top dose; the more sensitive the line, the further below 1. For some assays here: Any top dose called inferred was derived from the fitted curves, not read from the paper.
Columns and labels:
Assay in all cases: Viability of human cancer cell lines after 72 h of drug (GDSC screen)
[1] = compound: N[C@@H](CSC(c1ccccc1)(c1ccccc1)c1ccccc1)C(=O)O [S-Trityl-L-cysteine]; settings: top dose 5.12 µM; top dose inferred
Experimental: (§1)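 Human cancer cell lines in 384-well plates, medium with 10% serum, drug for 72 h over a 256-fold dose range (nine 2-fold or five 4-fold steps up to the top dose). Adherent lines were fixed and stained with the nucleic acid dye Syto60, suspension lines read with resazurin; signal relative to control wells, capped at 0 and 100%. One two-parameter sigmoid per drug and line, fitted in a mixed model over all curves with the slope shared within a line.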

[2] = compound: C=CC(=O)Nc1cc(NC(=O)c2ccc(C)c(NC(=O)c3ccno3)c2)cc(C(F)(F)F)c1 [QL-XI-92]; settings: top dose 10.24 µM; top dose inferred
Experimental: as §1

[3] = compound: CCC1=C[C@@H]2CN(C1)Cc1c([nH]c3ccccc13)[C@@](C(=O)OC)(c1cc3c(cc1OC)N(C)[C@H]1[C@@](O)(C(=O)OC)[C@H](OC(C)=O)[C@]4(CC)C=CCN5CC[C@]31[C@@H]54)C2 [Vinorelbine]; settings: top dose 0.064 µM; top dose inferred
Experimental: as §1

[4] = compound: COc1cc2ncnc(Nc3ccc(F)c(Cl)c3)c2cc1OCCCN1CCOCC1 [Gefitinib]; settings: top dose 0.5 µM
Experimental: as §1

[5] = compound: N=C(N)NC(=N)NCCc1ccccc1 [Phenformin]; settings: top dose 4000 µM; top dose inferred
Experimental: as §1

[6] = compound: COc1cc2ncnc(Nc3cc(Br)c(O)c(Br)c3)c2cc1OC [WHI-P97]; settings: top dose 10.24 µM; top dose inferred
Experimental: as §1

[7] = compound: O=c1cc(N2CCOCC2)oc2c(-c3cccc4c3sc3ccccc34)cccc12 [NU-7441]; settings: top dose 2 µM; top dose inferred
Experimental: as §1

[8] = compound: COc1cc2nccc(Oc3ccc(NC(=O)C4(C(=O)Nc5ccc(F)cc5)CC4)cc3)c2cc1OC [XL-184]; settings: top dose 5.12 µM; top dose inferred
Experimental: as §1

[9] = compound: C#Cc1cccc(Nc2ncnc3cc(OCCOC)c(OCCOC)cc23)c1 [Erlotinib]; settings: top dose 2 µM
Experimental: as §1

[10] = compound: CNCc1ccc(-c2[nH]c3cc(F)cc4c3c2CCNC4=O)cc1 [AG-014699]; settings: top dose 5 µM; top dose inferred
Experimental: as §1

[11] = compound: O=c1cc(CN2CCOCC2)occ1OCCCCCSc1ccnc2cc(C(F)(F)F)ccc12 [EHT 1864]; settings: top dose 10 µM; top dose inferred
Experimental: as §1

Cell Line | AUC [1] | IC50 [1] [µM] | AUC [2] | IC50 [2] [µM] | AUC [3] | IC50 [3] [µM] | AUC [4] | IC50 [4] [µM] | AUC [5] | IC50 [5] [µM] | AUC [6] | IC50 [6] [µM] | AUC [7] | IC50 [7] [µM] | AUC [8] | IC50 [8] [µM] | AUC [9] | IC50 [9] [µM] | AUC [10] | IC50 [10] [µM] | AUC [11] | IC50 [11] [µM]
KP-N-YN (neuroblastoma, adherent) | 0.875 | > 5.12 | 0.982 | > 10.2 | 0.79 | 0.0314 | 0.959 | > 0.5 | 0.987 | > 4000 | 0.951 | > 10.2 | 0.959 | > 2 | 0.987 | > 5.12 | 0.843 | 1.63 |  |  |  | 
L-363 (myeloma, suspension) | 0.634 | 0.711 | 0.919 | > 10.2 | 0.645 | 0.00949 | 0.98 | > 0.5 |  |  | 0.98 | > 10.2 | 0.94 | > 2 | 0.976 | > 5.12 | 0.991 | > 2 | 0.971 | > 5 | 0.923 | > 10
LP-1 (myeloma, suspension) | 0.851 | 2.93 | 0.947 | > 10.2 | 0.957 | > 0.064 | 0.989 | > 0.5 |  |  | 0.971 | > 10.2 | 0.993 | > 2 | 0.929 | > 5.12 | 0.99 | > 2 | 0.983 | > 5 | 0.919 | > 10
LU-139 (small cell lung carcinoma, suspension) | 0.776 | 2.64 | 0.922 | > 10.2 | 0.823 |  | 0.891 | > 0.5 | 0.24 | 35 | 0.971 | > 10.2 |  |  | 0.961 | > 5.12 | 0.981 | > 2 | 0.957 | > 5 | 0.918 | > 10
MOLP-8 (myeloma, suspension) | 0.583 | 0.536 | 0.728 | 2.76 | 0.568 | 0.00609 | 0.977 | > 0.5 |  |  | 0.976 | > 10.2 | 0.96 | > 2 | 0.882 | 5.05 | 0.987 | > 2 | 0.987 | > 5 | 0.981 | > 10
NTERA-2 cl.D1 (testis, adherent) | 0.901 | > 5.12 | 0.969 | > 10.2 | 0.31 | 0.00118 | 0.943 | > 0.5 | 0.846 | 2870 | 0.977 | > 10.2 |  |  | 0.893 | > 5.12 | 0.981 | > 2 | 0.846 | 3.59 | 0.974 | > 10
NU-DUL-1 (B-cell lymphoma, suspension) | 0.603 | 0.579 | 0.839 | 5.12 | 0.504 | 0.00409 | 0.993 | > 0.5 | 0.42 | 158 | 0.975 | > 10.2 | 0.914 | 1.93 | 0.856 | 2.9 | 0.993 | > 2 | 0.985 | > 5 |  | 
OCI-AML3 (acute myeloid leukaemia, suspension) | 0.583 | 0.522 | 0.838 | 5.55 | 0.604 | 0.00738 | 0.989 | > 0.5 | 0.757 | 1210 | 0.982 | > 10.2 | 0.979 | > 2 |  |  | 0.991 | > 2 | 0.968 | > 5 | 0.971 | > 10
RH-1 (rhabdomyosarcoma, adherent) | 0.904 | 4.86 | 0.981 | > 10.2 | 0.64 | 0.0091 | 0.945 | > 0.5 | 0.953 | > 4000 | 0.96 | > 10.2 |  |  | 0.849 | 2.92 | 0.991 | > 2 | 0.895 | 4.32 | 0.913 | > 10
SK-N-DZ (neuroblastoma, adherent) | 0.822 | 2.95 | 0.98 | > 10.2 | 0.959 | > 0.064 | 0.887 | > 0.5 | 0.864 | 3420 | 0.985 | > 10.2 |  |  | 0.921 | > 5.12 | 0.98 | > 2 | 0.971 | > 5 | 0.925 | > 10
SK-PN-DW (Ewing sarcoma, adherent) | 0.756 | 1.81 | 0.974 | > 10.2 | 0.627 | 0.00906 | 0.912 | > 0.5 | 0.826 | 2560 | 0.946 | > 10.2 | 0.976 | > 2 | 0.714 | 1.32 | 0.964 | > 2 |  |  | 0.964 | > 10
no-10 (glioma, adherent) | 0.756 | 2.11 | 0.934 | > 10.2 | 0.795 | 0.0377 | 0.98 | > 0.5 | 0.792 | 2280 | 0.972 | > 10.2 |  |  | 0.978 | > 5.12 | 0.976 | > 2 | 0.972 | > 5 | 0.947 | > 10
no-11 (glioma, adherent) | 0.826 | 4.2 | 0.885 | > 10.2 | 0.861 | > 0.064 | 0.968 | > 0.5 | 0.8 | 2520 | 0.98 | > 10.2 | 0.98 | > 2 | 0.893 | > 5.12 | 0.922 | > 2 | 0.938 | > 5 |  | 

From the supplement of paper PMC4967469
